Several values for one entry are separate records, joined by “and”; a condition that tells them apart may be missing. Identical values can stand only once. In all, about 410,000 compounds went through this assay and about 6,400 (1.6%) were called active. Inconclusive results, whose numbers are uncertain, are shown with a selection of clear calls. The call rests on the fitted dose curve; in most records, active means well fitted inhibition curve with a large enough effect; inconclusive means small, poorly fitted or top-dose-only effect; inactive means no such curve, though single readings can be large or run the other way. Potencies of inconclusive entries are doubtful fits and often do not repeat.
Each compound was assayed against Glucagon-like peptide 1 receptor (Homo sapiens) (UniProt P43220) (assay: qHTS of GLP-1 Receptor Inverse Agonists (Inhibition Mode)). Conditions: HEK293 GLP-1R CRE-luciferase, luminescence, 24 h, GLP-1R form is constitutively active; activity change, negative = inhibition: at 38.3 µM (top of the series) unless noted.
Sequence of UniProt P43220 (P43220 whole entry, looked up): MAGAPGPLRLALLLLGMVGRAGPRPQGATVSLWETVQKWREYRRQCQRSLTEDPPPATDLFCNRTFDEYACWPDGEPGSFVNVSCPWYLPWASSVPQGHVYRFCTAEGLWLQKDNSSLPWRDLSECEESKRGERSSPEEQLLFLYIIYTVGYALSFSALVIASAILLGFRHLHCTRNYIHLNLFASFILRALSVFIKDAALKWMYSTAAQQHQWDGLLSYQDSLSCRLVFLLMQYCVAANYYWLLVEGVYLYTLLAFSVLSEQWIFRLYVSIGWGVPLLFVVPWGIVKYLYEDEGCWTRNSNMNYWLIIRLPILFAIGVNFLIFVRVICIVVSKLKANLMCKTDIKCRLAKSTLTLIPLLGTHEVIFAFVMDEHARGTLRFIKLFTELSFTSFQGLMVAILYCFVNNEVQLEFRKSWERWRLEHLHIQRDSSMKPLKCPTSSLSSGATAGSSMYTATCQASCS
In short: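 Readout was luciferase luminescence, measured 12 min after detection reagent at room temperature. Beforehand, GLP-1R reporter HEK293 cells had sat 12 h, then received compounds for 24 hr at 37 deg C.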
For O=C(O)c1cccc(CN2C(=O)S/C(=C/c3cccc([N+](=O)[O-])c3)C2=O)c1, the Potency was inconclusive: 0.891 µM [inhibitor, full curve, poor fit]. For CSc1nnc2c(n1)[nH]c1c(C)cccc12, the “activity change, negative = inhibition” value was inactive: 57.5%. CCOC(=O)[C@]12CCCC=C1N(Cc1ccc(Cl)cc1Cl)C(=O)[C@H](CC(=O)NCCC(C)C)C2 was tested, and the Potency was inconclusive: 12.6 µM [inhibitor, partial curve, poor fit]. In the case of CCOC(=O)/C(=N\Nc1ccccc1)P(=O)(c1ccccc1)c1ccccc1, the Potency is reported as inconclusive: 11.2 µM [inhibitor, single point]. With CC1=C(c2ccc(C)cc2)S(=O)(=O)N(Cc2ccc(C(=O)NCc3ccccc3)cc2)C1=O the “activity change, negative = inhibition” value was inactive: 9.49%. CC(C)CN(CC(C)C)S(=O)(=O)N1CCC(C(=O)NCc2ccc3c(c2)OCO3)CC1 was tested, and the Potency was inconclusive: 11.2 µM [inhibitor, partial curve, poor fit]. For Nc1nc(SCc2ccc(Cl)cc2)[nH]c(=O)c1-c1ccccc1, the Potency was inconclusive: 28.2 µM [inhibitor, single point]. In the case of CC(C)Cc1nc(N2CCN(C(=O)c3ccco3)CC2)c(C#N)c2c1CCCC2, the Potency is reported as active: 8.91 µM. COc1ccc(Nc2nc(-c3cccc(OC)c3O)nc3ccccc23)cc1 was tested, and the Potency was inconclusive: 12.6 µM [inhibitor, partial curve]. In the case of O=C(CCc1ccccc1)NNC(=S)NCc1ccc(Cl)cc1, the Potency is reported as inconclusive: 25.1 µM [inhibitor, single point]. In the case of O=C(N/N=C/c1ccc(OC2CSC2)cc1)c1ccc(CN2CCOCC2)cc1, the Potency is reported as inconclusive: 3.55 µM [inhibitor, full curve]. With CC1=C(C(=O)N(C(C)C)C(C)C)CC(CC(=O)NCC2CCCCC2)C(=O)N1Cc1ccccc1 (stereo not drawn) the Potency was inconclusive: 10 µM [inhibitor, single point]. With COc1ccccc1S(=O)(=O)Cc1ccc(C(=O)NC(C)c2ccc3c(c2)OCCO3)o1 (stereo not drawn) the Potency was inconclusive: 28.2 µM [inhibitor, single point]. With Cc1ccc(SCC(=O)NC(=O)NCCC(C)C)c(C)c1 the Potency was inconclusive: 14.1 µM [inhibitor, partial curve, poor fit]. For CN(C)CCCN(C(=O)c1cc2ccccc2oc1=O)c1nc2ccc(F)cc2s1, the Potency was inconclusive: 8.91 µM [inhibitor, partial curve, poor fit]. With Cc1occc1-c1nnc(SC(C)C(=O)Nc2ccccc2F)o1 (stereo not drawn) the Potency was inconclusive: 11.2 µM [inhibitor, single point]. For COc1cccc(N=Nc2ccc3cccnc3c2O)c1, the Potency was inconclusive: 7.94 µM [inhibitor, partial curve, poor fit]. CC1CCc2nc(NC(=O)c3ccc(S(=O)(=O)N4CCCc5ccccc54)cc3)sc2C1 (stereo not drawn) was tested, and the “activity change, negative = inhibition” value was inactive: -35%. In the case of Cc1ccc2sc(-c3ccc(NC(=O)/C=C\C(=O)O)cc3)nc2c1, the Potency is reported as inconclusive: 11.2 µM [inhibitor, single point]. With CC(C)(C)C1CCc2nc(NC(=O)COc3ccccc3[N+](=O)[O-])sc2C1 (stereo not drawn) the Potency was inconclusive: 0.501 µM [inhibitor, full curve, poor fit]. With CN1CCOc2ccc(S(=O)(=O)NCCc3ccc(Cl)cc3)cc21 the Potency was inconclusive: 7.94 µM [inhibitor, partial curve, poor fit]. In the case of O=C(O)c1cccc(Nc2ccc3nonc3c2[N+](=O)[O-])c1, the “activity change, negative = inhibition” value is reported as inactive: 6.22%. COc1ccc(S(=O)(=O)c2c(SC)nn(CC(=O)Nc3ccc(C)c(Cl)c3)c2N)cc1 was tested, and the Potency was inconclusive: 22.4 µM [inhibitor, single point]. With COCc1nnc(NC(=O)C2CC(=O)N(CCc3ccc(F)cc3)C2)s1 (stereo not drawn) the “activity change, negative = inhibition” value was inactive: -15.9%. COc1cccc(/C=C/C(=O)c2ccc3c(c2)OCO3)c1OC was tested, and the Potency was inconclusive: 28.2 µM [inhibitor, single point]. O=C(Nc1ccc(Cl)cc1)N1CCC(CO)(Cc2ccccc2)CC1 was tested, and the Potency was active: 7.94 µM. CCc1nc2ccc(C(=O)Nc3ccc(Cl)c(Cl)c3)cn2c1N(C)Cc1ccc(OC)cc1 was tested, and the Potency was inconclusive: 31.6 µM [inhibitor, partial curve, poor fit]. For COc1cc(/C=C/c2nc3ccccc3s2)cc(OC)c1O, the “activity change, negative = inhibition” value was inactive: 39.9%. In the case of COc1ccc(C(=O)NC23CC4CC(CC(C4)C2)C3)cc1, the Potency is reported as inconclusive: 12.6 µM [inhibitor, partial curve, poor fit]. In the case of CCC(C)(C)C1CCC(=NNc2nc3ccccc3[nH]2)CC1 (stereo not drawn), the “activity change, negative = inhibition” value is reported as inactive: 18.3%. With COc1ccccc1N1CCN(C(=S)Nc2cccc(C)c2)CC1 the Potency was inconclusive: 8.91 µM [inhibitor, partial curve]. In the case of CCOc1cccc(/C=N/N2C(C)CCCC2C)c1O (stereo not drawn), the “activity change, negative = inhibition” value is reported as inactive: -22.6%. For CCOC(=O)[C@]12CCC=C1N(Cc1cccc3ccccc13)C(=O)[C@H](CC(=O)N1CCOCC1)C2, the Potency was inconclusive: 10 µM [inhibitor, partial curve, poor fit]. For CCCCC[C@H]1CN(CCCC)C(=O)[C@@H]1CC(=O)NCc1ccccc1, the Potency was inconclusive: 28.2 µM [inhibitor, single point]. With O=c1[nH][nH]c2c1[C@H](CCc1cccc(Cl)c1)O[C@H](C1CCCC1)C2 the Potency was inconclusive: 28.2 µM [inhibitor, single point]. With COc1ccc2c(CCNC(=O)Nc3ccccc3)c[nH]c2c1 the Potency was inconclusive: 28.2 µM [inhibitor, single point]. With Cc1ccc(CNC(=S)Nc2ccc(NS(=O)(=O)c3ccc(C)cc3)cc2)cc1 the Potency was active: 10 µM. CC(C)CCCCCCNC(=S)Nc1ccc(S(=O)(=O)N2CCOCC2)cc1 was tested, and the Potency was active: 3.55 µM. For CCN(CC(=O)Nc1c(F)cccc1F)C(=O)CN(C)S(=O)(=O)c1ccc(F)cc1, the activity change, negative = inhibition was inconclusive: -31.4% [inhibitor]. CC(C(=O)Nc1ccccc1Br)N1c2cccc3cccc(c23)S1(=O)=O (stereo not drawn) was tested, and the Potency was inconclusive: 2.24 µM [inhibitor, full curve]. For O=S(=O)(c1cccc(NC(=S)N2CCN(c3cccc(Cl)c3)CC2)c1)C(F)F, the Potency was inconclusive: 28.2 µM [inhibitor, single point]. For N#Cc1ccccc1OCCCN1CCC(Cc2ccccc2)CC1, the Potency was inconclusive: 28.2 µM [inhibitor, partial curve, poor fit]. With CCc1cccc(CC)c1N(COC)C(=O)Cn1cnc2ccccc21 the Potency was inconclusive: 10 µM [inhibitor, single point]. With O=C1NCCN(Cc2ccc(Cl)c(F)c2)C1CC(=O)N1CCCCO1 (stereo not drawn) the “activity change, negative = inhibition” value was inactive: 10.9%. In the case of COC(=O)c1[nH]c2cc(C)ccc2c1NC(=O)CN1CCN(c2ccccc2OC)CC1, the Potency is reported as active: 3.16 µM. For COc1ccc(N2CCN(C(=O)NC(=O)c3ccc(Cl)cc3)CC2)cc1, the Potency was inconclusive: 10 µM [inhibitor, partial curve, poor fit]. For COc1ccc(C=C2CCC3C(CCCC34OCCO4)C2=O)cc1 (stereo not drawn), the Potency was inconclusive: 28.2 µM [inhibitor, single point]. With O=C(NC(c1ccc(F)cc1)c1ccc2ccccc2n1)C1CCN(Cc2cccc(C(F)(F)F)c2)CC1 (stereo not drawn) the Potency was inconclusive: 3.55 µM [inhibitor, partial curve, poor fit]. In the case of Cc1ccccc1Nc1sc(C(=O)c2ccc(F)cc2)c(N)c1C(=O)NCCc1ccccc1, the Potency is reported as inconclusive: 25.1 µM [inhibitor, single point]. C=CCN(C(=O)C1CC(=O)N(C2CCCC2)C1)c1nc(-c2ccc(S(C)(=O)=O)cc2)cs1 (stereo not drawn) was tested, and the Potency was inconclusive: 28.2 µM [inhibitor, single point]. For CCN1/C(=C\C(=S)Nc2ccccc2)Sc2ccccc21, the Potency was inconclusive: 28.2 µM [inhibitor, single point]. With CCOC(=O)C1=NN(C(=O)c2ccc(OC)cc2)C(O)(c2ccc(Cl)cc2)C1 (stereo not drawn) the Potency was inconclusive: 28.2 µM [inhibitor, single point]. COc1ccc(CNC(=O)CN(C(=O)c2csnn2)c2cccc3c2CCCC3)cc1 was tested, and the Potency was inconclusive: 28.2 µM [inhibitor, single point]. For O=C(Nc1cccc2ccccc12)N(c1ccccc1)c1ccccc1, the Potency was inconclusive: 12.6 µM [inhibitor, single point]. For COc1ccc(-c2cn[nH]c2-c2ccc(OCc3ccc([N+](=O)[O-])cc3)cc2O)cc1, the Potency was inconclusive: 7.08 µM [inhibitor, partial curve, poor fit]. In the case of Cc1ccc2ncc(S(=O)(=O)c3ccccc3)c(N3CCCCC3C)c2c1 (stereo not drawn), the Potency is reported as inconclusive: 12.6 µM [inhibitor, single point] and inconclusive: 10 µM [inhibitor, partial curve, poor fit]. With Nc1nc(CCl)nc(Nc2ccccc2)n1 the Potency was inconclusive: 28.2 µM [inhibitor, single point]. CCn1c(C)c(C)c2cc(C(=O)NCc3ccc(N(C)C)cc3)ccc21 was tested, and the Potency was inconclusive: 14.1 µM [inhibitor, single point]. COc1cccc(C2=CC(=O)CC(C)(C)C2)n1 was tested, and the Potency was inconclusive: 3.98 µM [inhibitor, single point]. CCc1nc(NCCN)c(C#N)c2c1CSC(C)(C)C2 was tested, and the Potency was inconclusive: 28.2 µM [inhibitor, single point]. For Cc1cc(N2CCN(C)CC2)nc2ccc(NC(=S)N3CCN(c4ccc(F)cc4)CC3)cc12, the Potency was inconclusive: 1.12 µM [inhibitor, partial curve, poor fit]. In the case of COc1ccc(C2=NC3(CCCCCC3)N(CC(=O)Nc3ccc(C)c(C)c3)C2=O)cc1, the “activity change, negative = inhibition” value is reported as inactive: 2.52%. With CC(C)N(Cc1ccccc1)C(=O)CCc1ccccc1 the Potency was inconclusive: 11.2 µM [inhibitor, partial curve, poor fit].

Reference: PubChem BioAssay AID624417 (National Center for Advancing Translational Sciences (NCATS), 2012)
Further: nearly all actives have a fitted effect of over 55% in size.
On the % scale 0 is the no-effect control and ±100 the full control effect; potency means the concentration at half of the fitted maximal effect; tags describe the fitted curve by direction and shape.
